Results from PubChem BioAssay AID1240 (Sanford-Burnham Center for Chemical Genomics, 2008).
Screen size: about 50,000 compounds; about 800 (1.6%) showed an effect of 50% or more. This is one part of the list.

These molecules were tested against Bcl-2-like protein 10 (Homo sapiens) (UniProt Q9HD36) (assay: Phenotype converters, Bcl-B/TR3 peptide binding displacement, primary biochemical FP (AID 1240;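 also: 0% = Bcl-B with tracer peptide and DMSO and 100% = tracer peptide lacking Bcl-B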)). Settings: GST-Bcl-B / FITC-TR3 peptide fluorescence polarization; stronger effect = higher value; compound at 3.75 mg/L.
Chain of UniProt Q9HD36 (Q9HD36 whole entry, looked up): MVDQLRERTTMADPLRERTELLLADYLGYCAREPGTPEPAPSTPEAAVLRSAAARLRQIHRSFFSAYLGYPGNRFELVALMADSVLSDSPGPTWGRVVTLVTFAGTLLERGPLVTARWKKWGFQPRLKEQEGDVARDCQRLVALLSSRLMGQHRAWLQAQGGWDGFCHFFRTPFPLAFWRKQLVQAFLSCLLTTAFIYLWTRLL

SMILES	displacement
CC(C)c1ccc(CNc2cc(N3CCN(S(=O)(=O)c4ccccc4)CC3)ccc2[N+](=O)[O-])cc1	5.9%
COc1ccc(C2NC(c3ccc(OC)cc3)C3CCCC2C3=O)cc1 (configuration not stated)	10.6%
C=CCN1C(=O)/C(=C\c2c(OCC)ccc3ccccc23)C(=O)NC1=S	1.4%
O=C(O)c1ccc(NC(=O)c2ccc3ccccc3n2)cc1	9.5%
CCOC(=O)C1CCN(C(=O)c2cccc(F)c2)CC1	-8.4%
CCOC(=O)CCNC(=O)C(c1ccccc1)c1ccccc1	7.8%
NC(=O)c1ccccc1NS(=O)(=O)Cc1ccccc1	-0.2%
O=C(CSc1nc2ccccc2s1)c1ccc2ccccc2c1	11.9%
COc1cc(/C=N\n2c(C)nnc2C)cc(Br)c1O	-11.7%
O=C1N=C(SCC(=O)N2CCCc3ccccc32)NC(=O)C1c1ccccc1 (configuration not stated)	-6.7%
O=C(O)c1ccccc1NS(=O)(=O)c1cccc2cccnc12	-3.5%
Cc1cnnn1-c1cccc([N+](=O)[O-])c1	-4%
O=C(Nc1ccc(Nc2ccccc2)cc1)c1cccc(F)c1	3.6%
CC(C)C(=O)Nc1cccc(S(=O)(=O)c2cccc(NC(=O)C(C)C)c2)c1	5.8%
CCCOc1ccc(C(=O)Nc2cccc(C(=O)Nc3nccs3)c2)cc1	-10.4%
O=C(CN(c1ccc(Br)cc1)S(=O)(=O)c1ccccc1)NCCOc1ccccc1	-1.5%
COC(=O)c1ccccc1NC(=S)NC(NC(=O)c1ccc(F)cc1)C(Cl)(Cl)Cl (configuration not stated)	8.3%
COc1ccc(C(=O)C2C(=O)c3ccccc3C2=Nc2ccccc2)cc1 (configuration not stated)	7.3%
CCCCn1ccc(=O)c2c(C(F)(F)F)nccc21	17.4%
CC1=C(C(=O)Nc2ccccc2C)C(c2ccc(F)cc2)NC(=O)N1 (configuration not stated)	16.2%
CCOc1ccc(C2C3=C(CC(C)(C)CC3=O)OC3=C2C(=O)CC(C)(C)C3)cc1	-9.8%
Cc1cc(/C=N/O)c(C)n1-c1ccc(F)cc1	12.6%
O=C(/C=C/Nc1cccc(C(F)(F)F)c1)c1ccc(Br)cc1	4.6%

SMILES	displacement
COC(=O)C1=C(C)NC2=C(C(=O)CC(c3cccs3)C2)C1c1ccc(C)o1 (configuration not stated)	5.3%
O=[N+]([O-])c1ccc(N2CCOCC2)cc1[N+](=O)[O-]	-4.6%
O=C(NCc1ccccn1)c1ccc2c(c1)OCO2	-4.9%
CCOC(=O)CP(=O)(c1ccc(C)cc1)c1ccc(C)cc1	7.8%
O=C(Oc1cccc(-c2cnc3ccccc3n2)c1)c1cccc(S(=O)(=O)N2CCOCC2)c1	225%
Cn1cnnc1Sc1nc2c(c(=O)n(C)c(=O)n2C)n1Cc1ccc(F)cc1	4.2%
CC(C)Oc1c(I)cc(I)cc1/C=C(/C#N)c1nc2ccccc2[nH]1	7.2%
Cc1cccc(NC(=O)C2(c3ccccc3)CC2(Cl)Cl)c1C (configuration not stated)	0.7%
Cc1cc(/C=C2/SC(=O)NC2=O)c(C)n1-c1ccc(N2CCOCC2)cc1	11%
Cc1onc(-c2c(Cl)cccc2Cl)c1C(=O)Nc1nncs1	-16.8%
CCOc1ccc(N(CC(=O)Nc2cccc(Br)c2)S(=O)(=O)c2ccc(SC)cc2)cc1	3.9%
O=C(N/N=C/c1cc(Br)ccc1O)NC12CC3CC(CC(C3)C1)C2	-1.7%
Cc1ccc(-c2nnc(SCC(=O)OC(C)C)o2)cc1	14.5%
Nc1nc2n(n1)C(C(F)(F)F)CC(c1ccco1)N2 (configuration not stated)	2.9%
COc1ccc(C2=C/C(=C\c3cccc(OC(C)=O)c3)C(=O)O2)cc1	25.4%
Cc1cc(F)c(F)c(C(=O)N2CCOCC2)c1Cl	-7.4%
CCCOC(=O)C1=C(C)NC2=C(C(=O)CC(C)(C)C2)C1c1cccc(F)c1 (configuration not stated)	6.9%
CCN(CC)S(=O)(=O)c1cc(C(=O)NC2CCCCC2)ccc1Cl	-6.6%
CCOc1ccc(NC(=O)CN(c2ccccc2CC)S(C)(=O)=O)cc1	2.2%
O=C(Nc1cccc(Cl)c1)O/N=C\c1ccncc1	-4.2%
COc1cc(Cl)cc(/C=C2\C(=O)NC(=O)N(c3ccc(Br)c(C)c3)C2=O)c1O	-13.6%
O=C(Nc1cc(Cl)cc(Cl)c1)c1ccc(Br)o1	-13.8%
O=C(O)/C=C/C(=O)Nc1ccc(F)c(F)c1	6.2%

SMILES	displacement
COc1ccc(C2=NN(C(C)=O)C(c3ccc([N+](=O)[O-])cc3)C2)cc1 (configuration not stated)	4.1%
O=c1/c(=C/c2ccc(-c3ccc([N+](=O)[O-])cc3Cl)o2)sc2nc3cc(Br)cnc3n12	-4.2%
Cc1ccc(-c2noc(/C=C/c3ccccc3)n2)cc1	2.9%
Cc1cc(C(F)(F)F)nn1CC(=O)Nc1ccc(Cl)cc1Cl	0.7%
Cc1ccccc1OCCCCNCCO	-1.9%
C=CCn1c(=O)c(C(=O)Nc2cccc(C)c2)c(O)c2ccccc21	14.5%
CC1=Nc2cc(-c3cccc(Br)c3)nn2C(=O)C1	6.6%
COc1ccc(OC)c(/C=N/n2c(C)nc3ccccc3c2=O)c1	-9.7%
C=CCNC(=O)c1ccc(I)cc1	5.2%
CCOc1ccc(S(=O)(=O)N(CC(N)=O)c2ccc(C)cc2)cc1	5.1%
CCCCOc1cccc(C(=O)Nc2cccc(-c3nc4ccccc4o3)c2)c1	-49.2%
COc1ccc(NC(=O)c2ccc(OCC(C)C)cc2)cc1	5.4%
O=C1OC(c2ccccc2)=C/C1=C/c1ccc2c(c1)OCO2	-0.2%
CCOc1cc(C(=O)Nc2ccc(O)c(-c3nc4ccccc4s3)c2)cc(OCC)c1OCC	12.2%
COc1ccc(C2CC(C(F)(F)F)n3nc(C(=O)Nc4cc(OC)c(Cl)cc4OC)c(Cl)c3N2)cc1 (configuration not stated)	0.4%
CSC(=Nc1ccc(C)cc1)Nc1ccc(C)cc1	4.7%
COc1ccc(OC)c(C=C2C(=O)N(C)C(=S)N(C)C2=O)c1	12.2%
Fc1ccccc1OCCCCCN1CCCCC1	4.2%
O=C1c2[nH]nc(-c3ccccc3)c2C(c2cccc(F)c2)N1c1ccccc1 (configuration not stated)	-0.7%
COc1cc(C(=O)NCCCNc2ccc([N+](=O)[O-])cc2)cc(OC)c1OC	1.1%
Oc1ccccc1/C=N/Nc1nc(N2CCCC2)nc(N2CCCC2)n1	-3.1%
O=C1/C(=C/c2ccc([N+](=O)[O-])cc2)C=C(c2ccccc2)N1c1ccc(O)cc1	11.4%
Cn1c(N2C(=O)CC(Cc3ccccc3)C2=O)nc2ccccc21 (configuration not stated)	-19.7%

SMILES	displacement
O=C(NC1CCN(Cc2ccccc2)CC1)c1ccccc1F	2.4%
CCOC(=O)C1=C(c2ccccc2)N=c2s/c(=C\c3ccc(N(C)C)o3)c(=O)n2C1c1ccc(OC)c(OC)c1 (configuration not stated)	10.7%
COc1ccc(NC(=O)c2c(-c3ccccc3Cl)noc2C)c(OC)c1	10.5%
CCOC(=O)CN1C(=O)Nc2ccc(Br)cc2C1c1ccccc1 (configuration not stated)	-5.8%
COC(=O)CN1C(=O)/C(=C\c2cccs2)SC1=S	0.6%
COc1cc(OC)cc(C(=O)Nc2cc3oc4ccccc4c3cc2OC)c1	-2.1%
CC(=O)NC(NCc1cccnc1)C(Cl)(Cl)Cl (configuration not stated)	-2%
O=C(Nc1ccc(OC(F)(F)F)cc1)c1ccc(-c2cccc(Cl)c2)o1	28%
Cc1ccccc1C(=O)Nc1ccccc1C(=O)Nc1ccc(C(=O)O)cc1	2.5%
Cc1cc(OCC(=O)Nc2cccc(Br)c2)ccc1Cl	11.6%
CCOc1ccc(/C=N/NC(=O)c2ccc(C(=O)N/N=C/c3ccc(OCC)c(OC)c3)o2)cc1OC	9.9%
COc1ccc(CCNS(=O)(=O)c2cccc([N+](=O)[O-])c2)cc1OC	3.4%
Cc1ccc(NC2=C(Cl)C(=O)N(c3ccccc3Cl)C2=O)cc1C	-2%
C=CCOc1ccccc1/C=N/N=C(N)N	-14%
COc1ccccc1C1CC(=O)NC(SCc2ccccc2)=C1C#N (configuration not stated)	-2.3%
FC(F)(F)c1cccc(NC(=S)Nc2ccccc2)c1	9.2%
CC(=O)Nc1ccn(-c2ccccc2)n1	15%
CC(=O)NC(c1ccc(N(C)C)cc1)c1c(O)ccc2ccccc12 (configuration not stated)	0.9%
CC(=O)NC(=O)CC(=O)c1ccccc1	-1.5%
COc1ccc(N=C2CC(C)(C)CC(=O)/C2=C(O)\C=C\c2ccccc2)cc1	7.8%
O=C1c2ccccc2C(=O)N1CC(=O)n1c2c(c3ccccc31)CCCC2	-4.4%
O=C(/C=C/c1ccccc1[N+](=O)[O-])c1ccccc1	8.1%
O=C(NCCCN1CCOCC1)c1cccc(Cl)c1	9.8%

SMILES	displacement
c1ccc2c(c1)[nH]c1nc3nncn3nc12	6.2%
Cc1c(CCO)sc[n+]1CC(=O)OC12CC3CC(CC(C3)C1)C2	7.1%
CCc1cc2c(=O)c(-c3nc4ccccc4[nH]3)coc2c(CN2CCOCC2)c1O	8.5%
O=C1c2cccc3cccc(c23)C(=O)N1CCOc1ccccc1	7.1%
O=C(Nc1ncccc1Cl)c1ccccc1F	0%
COc1ccc(OC)c(/C=C2/C=C(c3ccccc3)OC2=O)c1	-24.5%
COC(=O)c1cc(NC(=O)c2ccc(C(C)C)cc2)cc(C(=O)OC)c1	10%
Cc1ccc(/C=N/Nc2nc(C(C)(C)C)cs2)o1	0.6%
O=[N+]([O-])c1cccc(-n2nncc2C23CC4CC(CC(C4)C2)C3)c1	-9.6%
COc1cccc(C(=O)N2CCNCC2)c1OC	-2.2%
O=C(NCC1CCCO1)c1nn2c(C(F)(F)F)cc(-c3ccco3)nc2c1Cl (configuration not stated)	7.1%
COc1ccc(CC(=O)N2N=C(C)CC2(O)c2ccc(Br)cc2)cc1OC (configuration not stated)	-8.3%
CCn1c2ccccc2c2cc(C=Nc3cccc4c(=O)[nH][nH]c(=O)c34)ccc21	4.1%
O=C(Nc1ccccc1F)c1cc2cc(Br)ccc2oc1=O	0.4%
COc1ccc(C(=O)NC(=S)Nc2cccc([N+](=O)[O-])c2)cc1	6.4%
CC(=O)OCCNC(=O)/C(=C\c1ccc(Cl)cc1)NC(=O)c1ccccc1	4.8%
Cn1nnnc1SCc1nc2ccccc2[nH]1	-1.1%
CNc1nc(Nc2ccccc2C(=O)c2ccccc2)nc(OC(C(F)(F)F)C(F)(F)F)n1	15.9%
O=C1OC(c2ccc(F)cc2)=N/C1=C\c1ccc(Cl)cc1	4.3%
Cc1occc1-c1nc(-c2cccnc2)no1	1.8%
